Source: the RNAGym collection of RNA variant scans (doi:10.7554/elife.90254)
Read counts are not given, so values of variants with three or more changes are uncertain.

B1: LINE1-mini (parent)
chain: GGCAGAGCUCAACACAGCGUGGCAAAGUGGCUGUGGCUAGACUGCC

Variants of: B1
Assay: self-cleavage, relative activity (ratio to wild type); higher = more cleavage; in vitro, sequencing; the parent is a self-cleaving ribozyme
Work on GGCAGAGCUCGACACAGCGUGGCAAAUUGGCUGUGGCUAGACUGUC [A11G G27U C45U] yielded a self-cleavage of 0.01.
Work on GGCAGAGCUCGACACAGCGUGGCAAAUUCGGUUUGGCUAGACUGCC [A11G G27U G29C C31G G33U] yielded a self-cleavage of 0.02.
In the case of GGCAGAGCUCGACACAGCGUGGCAAAGUCGCUGUGGAUAGACUGCC [A11G G29C C37A], the self-cleavage is reported as 0.
GGCAGAGCUCGACACAGCGUGGCAAAGUUGCUUUGGCUAGACUUCC [A11G G29U G33U G44U] showed a self-cleavage of 0.01.
Work on GGCAGAGCUCGACACAGCGUGGCAAAGUGGCUAUGGCUUGACUGCC [A11G G33A A39U] yielded a self-cleavage of 0.04.
With GGCAGAGCUCGACACAGCGUGGCAAAGUGGCUAUGGCUAGACAGUC [A11G G33A U43A C45U] the self-cleavage was 0.02.
For GGCAGAGCUCGACACAGCGUGGCAAAGUGGCUGUAGCUAUACUGCC [A11G G35A G40U], the self-cleavage was 0.
For GGCAGAGCUCGACACAGCGUGGCAAAGUGGCUGUGUACAGACUGCC [A11G G36U C37A U38C], the self-cleavage was 0.02.
For GGCAGAGCUCGACACAGCGUGGCAAAGUGGCUGUGUCUAGACUGCU [A11G G36U C46U], the self-cleavage was 0.03.
GGCAGAGCUCGACACAGCGAGGCAAAGUGGAUGUGUCUUGACGGAC [A11G U20A C31A G36U A39U U43G C45A] gave a self-cleavage of 0.
For GGCAGAGCUCGACACAGCGGGGCAAAGUGGCUGUGGUUAGACUGCC [A11G U20G C37U], the self-cleavage was 0.02.
In the case of GGCAGAGCUCGACACAGCGGGGCAAAGUGGCUGUGGCUAGACUGAC [A11G U20G C45A], the self-cleavage is reported as 0.03.
With GGCAGAGCUCGACACAGCGGUGCAAAGUGGCUGUGGCUUGACUGCC [A11G U20G G21U A39U] the self-cleavage was 0.02.
Work on GGCAGAGCUCGACACAGCGUGGCAAAGAGGCUGUGGCUCGACUGCU [A11G U28A A39C C46U] yielded a self-cleavage of 0.02.
GGCAGAGCUCGACACAGCGUGGCAAAGCGGCUGUGGCUAGAGUGCC [A11G U28C C42G] showed a self-cleavage of 0.
GGCAGAGCUCGACACAGCGUGGCAAAGCGGCCGUGGCUAGAAUGCC [A11G U28C U32C C42A] showed a self-cleavage of 0.01.
With GGCAGAGCUCGACACAGCGUGGCAAAGUGGCCGUGGCUAAACUGCC [A11G U32C G40A] the self-cleavage was 0.01.
GGCAGAGCUCGACACAGCGUGGCAAAGUGGCUGACGCUAAACUGCC [A11G U34A G35C G40A] showed a self-cleavage of 0.02.
GGCAGAGCUCUCCACGGCGUGGCAAAGUGGCUCUGGCUAGACUGCC [A11U A12C A16G G33C] gave a self-cleavage of 0.02.
Work on GGCAGAGCUCUCCACGGCGUGGCAAAGUGGCUGUGGCGAGCCUGCC [A11U A12C A16G U38G A41C] yielded a self-cleavage of 0.
GGCAGAGCUCUCCACAGCGUGGCUAAGUGGCUGUGGCUAGACUGCC [A11U A12C A24U] showed a self-cleavage of 0.01.
In the case of GGCAGAGCUCUCCACAGCGUGGAAAAGUGGCUGUGGCUCGACUGCC [A11U A12C C23A A39C], the self-cleavage is reported as 0.
With GGCAGAGCUCUCCACAGCGUGGCAAAGUGGCUGUGGCUAGAACGCC [A11U A12C C42A U43C] the self-cleavage was 0.02.
GGCAGAGCUCUCCACAGCGUGGCAAAGUGGCGGUGUCUAGACUGCC [A11U A12C U32G G36U] gave a self-cleavage of 0.03.
GGCAGAGCUCUGCACAGCGUGGCGAAGUGGCUGUGACUAGACUGCC [A11U A12G A24G G36A] gave a self-cleavage of 0.04.
Work on GGCAGAGCUCUUUACAUCGUGGCAAAGUGGCUGUGGCUAGCCUGCC [A11U A12U C13U G17U A41C] yielded a self-cleavage of 0.01.
Variant GGCAGAGCUCUUCACAGCGUGGCAAAGUGGCUGUGGUUAGACUGCC [A11U A12U C37U] has a self-cleavage of 0.
GGCAGAGCUCUUCACAGCGUGGCAAAAUGGCUGUGGUUAGACUGCC [A11U A12U G27A C37U] showed a self-cleavage of 0.
Work on GGCAGAGCUCUUCACAGCGUGGCAAAGGGGCUGUGGCUAGACUGCU [A11U A12U U28G C46U] yielded a self-cleavage of 0.01.
Work on GGCAGAGCUCUACCCAGCGUGGCAAAGUGGCUGUGGCUAGACUACC [A11U A14C G44A] yielded a self-cleavage of 0.01.
With GGCAGAGCUCUACGCAGCGUGGCCAAGUGGCUGUCGCAAGACUGCC [A11U A14G A24C G35C U38A] the self-cleavage was 0.
With GGCAGAGCUCUACUCCGCGUGGGAAAGUGGCUGUGGCUAGACUGCC [A11U A14U A16C C23G] the self-cleavage was 0.03.
GGCAGAGCUCUACUCUGCGUGGCAAAGGGGCUGUGGCUAGACUGCC [A11U A14U A16U U28G] gave a self-cleavage of 0.02.
For GGCAGAGCUCUACUCAGCGUUGCAAAGUGGCUGUGGCUAGACUGCC [A11U A14U G21U], the self-cleavage was 0.06.
For GGCAGAGCUCUACUCAGCGUGACAAAGUGGCUUUGGCGAGACUGCC [A11U A14U G22A G33U U38G], the self-cleavage was 0.04.
For GGCAGAGCUCUACUCAGCGUGGCAAAGUGGCUGUUGCUAGACUGCC [A11U A14U G35U], the self-cleavage was 0.01.
For GGCAGAGCUCUACACCGCGUGGCAAAGUGGCUGUGGCUAGACUCCC [A11U A16C G44C], the self-cleavage was 0.01.
GGCAGAGCUCUACACGGCGUGGCAAAGUGGCUGUCGCGAGACUGCC [A11U A16G G35C U38G] gave a self-cleavage of 0.01.
GGCAGAGCUCUACACGGCGUGGCAAAGUGGCUGUGGCUACACUGCC [A11U A16G G40C] showed a self-cleavage of 0.01.
GGCAGAGCUCUACACUGCGUGGCAAAGUGGCUGUGGCUAGAAUGCU [A11U A16U C42A C46U] showed a self-cleavage of 0.01.
In the case of GGCAGAGCUCUACACAGCGUGGCCAAGUGUCUGUGGCUAGACUGCC [A11U A24C G30U], the self-cleavage is reported as 0.01.
GGCAGAGCUCUACACAGCGUGGCCAAGUGGCUUUGCCUGGACUGCC [A11U A24C G33U G36C A39G] showed a self-cleavage of 0.
For GGCAGAGCUCUACACAGCGUGGCCAAGUGGCGGUGGCUAGACUGCC [A11U A24C U32G], the self-cleavage was 0.03.
GGCAGAGCUCUACACAGCGUGGCUAACUGGCUGUGGCUAGACUGCC [A11U A24U G27C] showed a self-cleavage of 0.11.
In the case of GGCAGAGCUCUACACAGCGUGGCACAGUGGCUGUGGCUAGCCUGUC [A11U A25C A41C C45U], the self-cleavage is reported as 0.01.
GGCAGAGCUCUACACAGCGUGGCACAGAGGCUGUGGCUAGACUGCC [A11U A25C U28A] gave a self-cleavage of 0.01.
Variant GGCAGAGCUCUACACAGCGUGGCACAGUGGCUGGGGCUAGACUGCC [A11U A25C U34G] has a self-cleavage of 0.03.
Work on GGCAGAGCUCUACACAGCGUGGCAGAGUGGCUGGAGCUAGACUGCC [A11U A25G U34G G35A] yielded a self-cleavage of 0.03.
Work on GGCAGAGCUCUACACAGCGUGGCAUAGUGGCUGUGGCUACACUGCC [A11U A25U G40C] yielded a self-cleavage of 0.04.
GGCAGAGCUCUACACAGCGUGGCAUAGUGGCAGCGGCUAGAUUGCC [A11U A25U U32A U34C C42U] gave a self-cleavage of 0.03.
Work on GGCAGAGCUCUACACAGCGUGGCAACGUGGCUGUGGCUUGACGGCC [A11U A26C A39U U43G] yielded a self-cleavage of 0.
GGCAGAGCUCUACACAGCGUGGCAACGUGGCUGUGGCUAGAGUGCC [A11U A26C C42G] showed a self-cleavage of 0.02.
Variant GGCAGAGCUCUACACAGCGUGGCAAGGUGGCUGUCGCUAGGCUGCC [A11U A26G G35C A41G] has a self-cleavage of 0.
GGCAGAGCUCUACACAGCGUGGCAAUGUAGCUGUGGUUAGACUGCC [A11U A26U G29A C37U] gave a self-cleavage of 0.02.
Work on GGCAGAGCUCUAAACAGCGUGGUCAAGUGGCUUUGGCUAGACUGCC [A11U C13A C23U A24C G33U] yielded a self-cleavage of 0.
GGCAGAGCUCUAAACAGCGUGCCAAAGUGGCUGUGGCUAGACUGCC [A11U C13A G22C] showed a self-cleavage of 0.02.
